# Results as given in PubChem BioAssay (Tox21).
# Values joined by “and” are separate entries in the source; they are usually repeats but may differ in a detail not shown here. Equal entries are not always repeated. The inconclusive results got no clear call from the source; some entries with a clear call stand among them for comparison. Where a call stands in place of a potency, no number is given. For some of these results: Potencies beside an inconclusive call are fits to weak or partial responses and may not hold up. Some compounds were tested as several samples or in several runs, with calls that do not always agree. Active and inactive are the calls of the source. Unless noted, calls follow the shape of the dose curve; as a rule, active = well fitted curve in the direction sought with a large enough effect in the repeat runs; inconclusive = weak or mixed curves; inactive = no such curve, though single readings can be large; an effect the other way counts as inactive or inconclusive.
# Columns and labels:
# [1] = qHTS assay to identify small molecule agonists of H2AX (AID 1224845; active = well fitted activation curve with a large enough effect in the signal ratio in the repeat runs, not every such curve was filed as active; inconclusive = weak or mixed curves; the % refers to the signal ratio; also: potency is read from the fitted curve at half-maximal effect); details: CHO-K1 phospho-H2AX Ser139 HTRF, 3 h; series mostly up to 154 µM
# Summary of the method: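 Wild-type CHO-K1 cells, plated overnight, exposed 3hr at 37C to 15 concentrations (0.76% DMSO final). Lysed, then HTRF anti-pH2AX (S139) cryptate and anti-H2AX-d2 antibodies, 24 hr room temperature; 665/620 nm emission read.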
# [2] = qHTS assay to identify small molecule agonists of the hypoxia (HIF-1) signaling pathway (AID 1224846; active = well fitted activation curve with a large enough effect in the signal ratio in the repeat runs, not every such curve was filed as active; inconclusive = weak or mixed curves; the % refers to the signal ratio; also: potency is read from the fitted curve at half-maximal effect); details: HRE-bla ME-180 cells, beta-lactamase ratio, 17 h; activation: at 76.8 µM (top of the series) unless noted
# Summary of the method: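 Compounds added to ME-180 cells carrying hypoxia-response-element beta-lactamase reporter (0.5% dialyzed FBS, 5 h preplating), 17 h at 37C; agonist activity detected by CCF4-AM B/G FRET read-out.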
# [3] = qHTS assay to identify small molecule agonists of H2AX - cell viability counter screen (AID 1224847; calls by dose curve; also: top concentration of the series differs between compounds; nearly all actives have a fitted effect of over 30% in size)
# Summary of the method: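 Counter-screen for viability: CellTiter-Glo ATP luminescence read after 3 h compound treatment (15-point titration, 0.76% DMSO final) of CHO-K1 cells at 37C, with 30 min room-temperature reagent incubation.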
# [4] = qHTS RealTime-Glo MT Cell Viability Assay in HepG2 cells - 24 hour (AID 1224867); also: nearly all actives have a fitted effect of over 50% in size; also: potency is read from the fitted curve at half-maximal effect
# Summary of the method: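 HepG2 cells were seeded at 600 cells/well together with NanoLuc luciferase and a cell-permeant prosubstrate, preincubated 5 h at 37 C/5% CO2, then pin-dosed with compounds in DMSO. Nonlytic luminescence from viable cells was read at each time point.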
# [5] = qHTS RealTime-Glo MT Cell Viability Assay in HEK293 cells - 32 hour (AID 1224868); also: nearly all actives have a fitted effect of over 50% in size; also: potency is read from the fitted curve at half-maximal effect
# Summary of the method: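 HEK293 cells were seeded at 600 cells/well together with NanoLuc luciferase and cell-permeant prosubstrate, preincubated 5 h at 37 C/5% CO2, then given compound in DMSO by pintool. Luminescence from viable-cell prosubstrate reduction was read repeatedly over 40 h.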
# [6] = qHTS assay to identify small molecule agonists of the hypoxia (HIF-1) signaling pathway - cell viability counter screen (AID 1224844; calls by dose curve; also: nearly all actives have a fitted effect of over 50% in size; also: potency is read from the fitted curve at half-maximal effect)
# Summary of the method: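 Cytotoxicity measured by CellTiter-Glo ATP luminescence in the wells also read for beta-lactamase signal. Cells were HRE-bla ME-180 (2,000/well, 0.5% dialyzed FBS), exposed to compounds for 17 h at 37C.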
# [7] = A CellTox Green Cytotoxicity Assay to monitor cytotoxicity in HEK293 cells - 0 hour (AID 1224869); also: potency is read from the fitted curve at half-maximal effect; nearly all actives have a fitted effect of over 50% in size
# Summary of the method: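 Fluorescence from a DNA-binding dye excluded by viable cells was measured repeatedly in the same HEK293 wells (600 cells/well) during continuous compound exposure at 37 C. Each assay gives one read point: 0, 8, 16, 24, 32 or 40 h.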
# Tags tell the direction and shape of the fitted curve or compound fluorescence and quenching.
smiles,measurement,setting,value
Cc1ccc(S(=O)(=O)NC(=O)NC2CCCCC2)cc1,Potency,[1],inactive
OC[C@H]1O[C@@H]2O[C@H]3[C@H](O)[C@@H](O)[C@@H](O[C@H]4[C@H](O)[C@@H](O)[C@@H](O[C@H]5[C@H](O)[C@@H](O)[C@@H](O[C@H]6[C@H](O)[C@@H](O)[C@@H](O[C@H]7[C@H](O)[C@@H](O)[C@@H](O[C@H]8[C@H](O)[C@@H](O)[C@@H](O[C@H]1[C@H](O)[C@H]2O)O[C@@H]8CO)O[C@@H]7CO)O[C@@H]6CO)O[C@@H]5CO)O[C@@H]4CO)O[C@@H]3CO,Potency,[1],inactive
same,Potency,[2],inactive
same,Potency,[3],inactive
same,Potency,[4],inactive
same,Potency,[5],"inconclusive: 31 µM [cytotoxic, partial curve, poor fit]"
CC(=O)c1ccccn1,Potency,[1],inactive
CCn1c2ccccc2c2cc([N+](=O)[O-])ccc21,Potency,[1],inconclusive: 127 µM [fluorescent]
same,Potency,[2],inconclusive: 54.9 µM [activator]
same,Potency,[5],"inconclusive: 24.5 µM [cytotoxic, partial curve, poor fit]"
CC(C)(O)c1coc(S(=O)(=O)NC(=O)Nc2c3c(cc4c2CCC4)CCC3)c1,Potency,[1],inactive
same,Potency,[2],inactive
CC1(C)CCC[C@]2(C)[C@H]3CCO[C@]3(C)CC[C@@H]12,Potency,[6],"inconclusive: 43.6 µM [cytotoxic, partial curve, poor fit]"
same,Potency,[2],"inconclusive: 61.7 µM [falling, single point]"
same,Potency,[7],"inconclusive: 19.5 µM [activator, partial curve, poor fit]"
O=C(O)Cc1cccc2ccccc12,Potency,[6],inactive and active: 4.36 µM
same,Potency,[2],"inconclusive: 13.8 µM [rising, partial curve, poor fit]"
same,Potency,[5],inactive
same,Potency,[7],"inconclusive: 24.5 µM [activator, single point]"
CN1CCC(=C2c3ccccc3C=Cc3ccccc32)CC1,Potency,[6],"inconclusive: 19 µM [cytotoxic, partial curve]"
same,Potency,[4],"inconclusive: 26.8 µM [falling, partial curve, poor fit]"
same,Potency,[5],"inconclusive: 26.8 µM [cytotoxic, single point]"
O=CCCc1ccccc1,Potency,[6],inactive
same,Potency,[4],inactive
CCCCCCCCCCCCCCCBr,Potency,[1],"inconclusive: 61.8 µM [activator, partial curve, poor fit]"
Cc1oc(=O)oc1CN1CCN(c2cc3c(cc2F)c(=O)c(C(=O)O)c2n3C(C)S2)CC1 (stereo unspecified),Potency,[1],inactive
same,Potency,[2],inactive
Nc1ccc(S(=O)(=O)NC(=O)c2ccccc2)cc1,Potency,[1],"inconclusive: 0.22 µM [falling, single point]"
CC(C)CCCCCCc1ccc(OCCOCCO)cc1,Potency,[1],inactive
same,Potency,[2],inactive
Cc1cc(C)cc(OCC2CNC(=O)O2)c1 (stereo unspecified),Potency,[1],inactive
